# In all, about 81,000 sequences were measured (“one-hybrid fitness for binding NBS DNA”: median about -0.1, highest 2% from about 0.36 on). Some of the results follow.
# B1: Caulobacter ParB omega fusion; a variant is named by its letters at X, in order, B8GW30 (parent)
# chain: MESVVVGEPGMSEGRRGLGRGLSALLGEVDAAPAQAPGEQLGGSREAPIEILQRNPDQPRRTFREEDLEDLSNSIREKGVLQPILVRPSPDTAGEYQIVAGERAWRAAQRAGLKTVPIMVRELDDLAVLEIGIIENVQRADLNVLEEALSYKVLMEKFERTQENIAQTIGKSXSHVANXMRLLXLPDEVQSYLVSGELTAXHARAIAAAADPVALAKQIIEGGLSVRETEALARKAPNLSAGKSKGGRPPRVKDTDTQALESDLSSVLGLDVSIDHRGSTGTLTITYATLEQLDDLCNRLTRGI
# Variants of: B1
# Test: one-hybrid fitness for binding NBS DNA (the Noc-binding site; scaled: cognate 1, non-cognate 0); higher = stronger binding
# Details: with NBS DNA site
# How it was run: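 Values were rescaled so that cognate is 1 and non-cognate is 0. Each is a fitness, the log change in a variant's read ratio to wild type from Illumina reads of plasmids before and after selection, with three replicate libraries pooled and variants under 10 reads dropped. Selection of the Caulobacter ParB libraries, four specificity codons randomised, used E. coli USO with a HIS3 reporter, site 19 bp from the promoter, on M9-minus-histidine with 0.1 mM IPTG and 5 mM 3-AT for 48 hours at 37°C.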
row,Variant,one-hybrid fitness for binding NBS DNA
1,WRCS,≤ 0.2
2,PEAG,≤ 0.2
3,PQNM,≤ 0.2
4,AESS,≤ 0.2
5,PGHY,≤ 0.2
6,GKPH,≤ 0.2
7,RRNM,0.428
8,VYPY,≤ 0.2
9,NFES,≤ 0.2
10,LYSN,≤ 0.2
11,MFPT,≤ 0.2
12,YRLS,≤ 0.2
13,GRTS,≤ 0.2
14,CMGC,≤ 0.2
15,ARWG,≤ 0.2
16,ITAS,≤ 0.2
17,RVLQ,≤ 0.2
18,KENC,≤ 0.2
19,HKGH,≤ 0.2
20,HFLR,≤ 0.2
21,KRCI,≤ 0.2
22,MVLV,≤ 0.2
23,PDHE,≤ 0.2
24,DPGS,≤ 0.2

row,Variant,one-hybrid fitness for binding NBS DNA
1,PTER,≤ 0.2
2,KFAS,≤ 0.2
3,HKST,≤ 0.2
4,PKWL,≤ 0.2
5,PFNL,≤ 0.2
6,PHIA,≤ 0.2
7,IADT,≤ 0.2
8,PYLR,≤ 0.2
9,KRVW,≤ 0.2
10,TENS,≤ 0.2
11,TDVR,≤ 0.2
12,WSMC,≤ 0.2
13,APID,≤ 0.2
14,CHLG,≤ 0.2
15,THTV,≤ 0.2
16,KMKR,0.4
17,YVNP,≤ 0.2
18,NWLW,≤ 0.2
19,ENLY,≤ 0.2
20,CHTR,≤ 0.2
21,SSRA,≤ 0.2
22,HWRT,≤ 0.2
23,MTSF,≤ 0.2
24,AVTT,≤ 0.2

row,Variant,one-hybrid fitness for binding NBS DNA
1,MNTL,≤ 0.2
2,NDLE,≤ 0.2
3,QPSI,≤ 0.2
4,VPNN,≤ 0.2
5,NDLC,≤ 0.2
6,VTDW,≤ 0.2
7,RRML,≤ 0.2
8,RWQH,≤ 0.2
9,GTVQ,≤ 0.2
10,SPLF,≤ 0.2
11,PGAL,≤ 0.2
12,GAST,≤ 0.2
13,FIAR,≤ 0.2
14,PCCV,≤ 0.2
15,MTRF,≤ 0.2
16,LWSL,≤ 0.2
17,GSMG,≤ 0.2
18,EQSY,≤ 0.2
19,LAVF,≤ 0.2
20,SDPC,≤ 0.2
21,LHPR,≤ 0.2
22,TQTV,≤ 0.2
23,DLVK,≤ 0.2
24,FQNA,≤ 0.2

row,Variant,one-hybrid fitness for binding NBS DNA
1,KETN,≤ 0.2
2,YISS,≤ 0.2
3,PKMR,≤ 0.2
4,HSDL,≤ 0.2
5,GAQR,≤ 0.2
6,RQAL,≤ 0.2
7,QESM,≤ 0.2
8,PIER,≤ 0.2
9,MRCG,≤ 0.2
10,GSGM,≤ 0.2
11,GFIT,≤ 0.2
12,PDFL,≤ 0.2
13,AKHQ,≤ 0.2
14,PYRM,≤ 0.2
15,TKYV,≤ 0.2
16,NLSC,≤ 0.2
17,YLIY,≤ 0.2
18,FKLV,≤ 0.2
19,PTWE,≤ 0.2
20,WGGR,≤ 0.2
21,VVNF,≤ 0.2
22,HQLG,≤ 0.2
23,RVEA,≤ 0.2
24,NHIT,≤ 0.2

row,Variant,one-hybrid fitness for binding NBS DNA
1,IVIS,≤ 0.2
2,RRAF,≤ 0.2
3,GTWI,≤ 0.2
4,GKTA,≤ 0.2
5,FSWG,≤ 0.2
6,RHLG,≤ 0.2
7,PQRG,≤ 0.2
8,WCYG,≤ 0.2
9,PHHR,≤ 0.2
10,REKN,≤ 0.2
11,NGHC,≤ 0.2
12,CKKK,≤ 0.2
13,RDHG,≤ 0.2
14,FVWS,≤ 0.2
15,CSAH,≤ 0.2
16,LRIP,≤ 0.2
17,RHED,≤ 0.2
18,YYNL,≤ 0.2
19,QQRR,1.09
20,TTEV,≤ 0.2
21,MSAS,≤ 0.2
22,LNRV,≤ 0.2
23,QDLT,≤ 0.2
24,MSIL,≤ 0.2

row,Variant,one-hybrid fitness for binding NBS DNA
1,THLD,≤ 0.2
2,CVCF,≤ 0.2
3,SAED,≤ 0.2
4,RDYY,≤ 0.2
5,CCYA,≤ 0.2
6,GNYS,≤ 0.2
7,HGIC,≤ 0.2
8,RRLV,0.217
9,IRDI,≤ 0.2
10,TQNV,≤ 0.2
11,PAEP,≤ 0.2
12,YLRS,≤ 0.2
13,LSNK,≤ 0.2
14,NQFR,≤ 0.2
15,RHRF,≤ 0.2
16,RKDR,0.443
17,RVTT,0.449
18,HGTP,≤ 0.2
19,GKAR,≤ 0.2
20,VKIQ,≤ 0.2
21,TESR,≤ 0.2
22,LKVY,≤ 0.2
23,HTCF,≤ 0.2
24,CCYD,≤ 0.2

row,Variant,one-hybrid fitness for binding NBS DNA
1,DVIV,≤ 0.2
2,RVPI,≤ 0.2
3,PRTL,≤ 0.2
4,QMDG,≤ 0.2
5,SNEP,≤ 0.2
6,SDPM,≤ 0.2
7,APIT,≤ 0.2
8,RVII,≤ 0.2
9,HIWR,≤ 0.2
10,HCFF,≤ 0.2
11,HWPI,≤ 0.2
12,LAFG,≤ 0.2
13,TRAY,≤ 0.2
14,KLNE,≤ 0.2
15,CGEV,≤ 0.2
16,EWRG,≤ 0.2
17,APIW,≤ 0.2
18,CFPL,≤ 0.2
19,KMKM,≤ 0.2
20,VYNP,≤ 0.2
21,SPKC,≤ 0.2
22,MIVI,≤ 0.2
23,LFSF,≤ 0.2
24,GHSK,≤ 0.2

row,Variant,one-hybrid fitness for binding NBS DNA
1,LLQW,≤ 0.2
2,WKCR,≤ 0.2
3,PREP,≤ 0.2
4,QMLF,≤ 0.2
5,VMNC,≤ 0.2
6,VKTT,≤ 0.2
7,YMAD,≤ 0.2
8,QNQH,≤ 0.2
9,YFMS,≤ 0.2
10,KNAS,≤ 0.2
11,THTY,≤ 0.2
12,GKGR,≤ 0.2
13,DDTT,≤ 0.2
14,ACCR,≤ 0.2
15,WRGG,≤ 0.2
16,PNCT,≤ 0.2
17,RRPP,≤ 0.2
18,ANAR,≤ 0.2
19,PANT,≤ 0.2
20,TASD,≤ 0.2
21,CHRT,≤ 0.2
22,IREV,≤ 0.2
23,TYIL,≤ 0.2
24,YGVF,≤ 0.2

row,Variant,one-hybrid fitness for binding NBS DNA
1,LPTA,≤ 0.2
2,SVWC,≤ 0.2
3,DYYS,≤ 0.2
4,MLVM,≤ 0.2
5,GDGE,≤ 0.2
6,VLFP,≤ 0.2
7,ATRG,≤ 0.2
8,WPYR,≤ 0.2
9,HEPQ,≤ 0.2
10,ERPV,≤ 0.2
11,QHTM,≤ 0.2
12,MCRL,≤ 0.2
13,ETDR,≤ 0.2
14,LDHL,≤ 0.2
15,HGKS,≤ 0.2
16,NMPG,≤ 0.2
17,ARRL,≤ 0.2
18,LIQS,≤ 0.2
19,RMGE,≤ 0.2
20,TYRF,≤ 0.2
21,HYTV,≤ 0.2
22,ARPR,≤ 0.2
23,RMAF,≤ 0.2
24,GPTI,≤ 0.2

row,Variant,one-hybrid fitness for binding NBS DNA
1,VMQS,≤ 0.2
2,SCHW,≤ 0.2
3,EKSS,≤ 0.2
4,ISAY,≤ 0.2
5,QENV,≤ 0.2
6,KVNC,≤ 0.2
7,IADG,≤ 0.2
8,EKRH,≤ 0.2
9,LCRL,≤ 0.2
10,QLKA,0.466
11,RNRE,≤ 0.2
12,IDQG,≤ 0.2
13,SWPG,≤ 0.2
14,QPEM,≤ 0.2
15,KLRM,≤ 0.2
16,QQSD,≤ 0.2
17,RSLM,≤ 0.2
18,YCMR,≤ 0.2
19,GHRR,≤ 0.2
20,YSNC,≤ 0.2
21,TICM,≤ 0.2
22,GKKT,≤ 0.2
23,RFYL,≤ 0.2
24,TDPC,≤ 0.2

row,Variant,one-hybrid fitness for binding NBS DNA
1,IHIS,≤ 0.2
2,LTFC,≤ 0.2
3,LLQC,≤ 0.2
4,DFLV,≤ 0.2
5,YTKR,≤ 0.2
6,SLHW,≤ 0.2
7,NGGT,≤ 0.2
8,RGRQ,≤ 0.2
9,NMTN,≤ 0.2
10,CRKA,≤ 0.2
11,QLCI,≤ 0.2
12,QHFR,0.408
13,RIDI,≤ 0.2
14,QTQQ,0.238
15,FVTQ,≤ 0.2
16,NHAI,≤ 0.2
17,THQT,≤ 0.2
18,GLGG,≤ 0.2
19,FCML,≤ 0.2
20,LTRE,≤ 0.2
21,NATF,≤ 0.2
22,GTWE,≤ 0.2
23,YCSV,≤ 0.2
24,ENTG,≤ 0.2

row,Variant,one-hybrid fitness for binding NBS DNA
1,KYMG,≤ 0.2
2,IFMG,≤ 0.2
3,SVMV,≤ 0.2
4,RRQR,0.765
5,HHTT,≤ 0.2
6,QGHG,≤ 0.2
7,PASL,≤ 0.2
8,SPCV,≤ 0.2
9,YVDF,≤ 0.2
10,ATRS,≤ 0.2
11,DFNT,≤ 0.2
12,NEPG,≤ 0.2
13,AHDG,≤ 0.2
14,EVRV,≤ 0.2
15,NHHS,≤ 0.2
16,SGPW,≤ 0.2
17,WSDC,≤ 0.2
18,IARR,≤ 0.2
19,HPAW,≤ 0.2
20,ITAD,≤ 0.2
21,RMDD,≤ 0.2
22,KCTN,≤ 0.2
23,MGLC,≤ 0.2
24,WRKL,≤ 0.2

row,Variant,one-hybrid fitness for binding NBS DNA
1,DTNM,≤ 0.2
2,QFLL,≤ 0.2
3,RGAI,≤ 0.2
4,RHDG,≤ 0.2
5,HKPR,≤ 0.2
6,KMSM,≤ 0.2
7,VGLL,≤ 0.2
8,TMIS,≤ 0.2
9,SSDG,≤ 0.2
10,QPKQ,≤ 0.2
11,GGVR,≤ 0.2
12,RVEW,≤ 0.2
13,IYYC,≤ 0.2
14,RFMK,≤ 0.2
15,IMFV,≤ 0.2
16,DRNT,≤ 0.2
17,QLTH,≤ 0.2
18,QKCF,≤ 0.2

# Source: a collection of fitness landscapes (doi:10.1016/j.celrep.2020.107928)
